# Test results taken from publication PMC4336329 (PLoS ONE, 2015).
# The campaign covered roughly 310,000 compounds. About 14,000 (4.5%) showed an effect of 50% or more. The effect is printed as a negative number. This is one part of the list.
# Biological target: human ether-à-go-go-related gene (hERG) potassium channel (human, UniProt Q12809)
# Assay: primary screen, population patch clamp on CHO cells stably expressing hERG
# 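Also: peak tail current of the secondary pulse compared with the same well before compound.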
# Sequence of human ether-à-go-go-related gene (hERG) potassium channel (Q12809 whole entry, looked up): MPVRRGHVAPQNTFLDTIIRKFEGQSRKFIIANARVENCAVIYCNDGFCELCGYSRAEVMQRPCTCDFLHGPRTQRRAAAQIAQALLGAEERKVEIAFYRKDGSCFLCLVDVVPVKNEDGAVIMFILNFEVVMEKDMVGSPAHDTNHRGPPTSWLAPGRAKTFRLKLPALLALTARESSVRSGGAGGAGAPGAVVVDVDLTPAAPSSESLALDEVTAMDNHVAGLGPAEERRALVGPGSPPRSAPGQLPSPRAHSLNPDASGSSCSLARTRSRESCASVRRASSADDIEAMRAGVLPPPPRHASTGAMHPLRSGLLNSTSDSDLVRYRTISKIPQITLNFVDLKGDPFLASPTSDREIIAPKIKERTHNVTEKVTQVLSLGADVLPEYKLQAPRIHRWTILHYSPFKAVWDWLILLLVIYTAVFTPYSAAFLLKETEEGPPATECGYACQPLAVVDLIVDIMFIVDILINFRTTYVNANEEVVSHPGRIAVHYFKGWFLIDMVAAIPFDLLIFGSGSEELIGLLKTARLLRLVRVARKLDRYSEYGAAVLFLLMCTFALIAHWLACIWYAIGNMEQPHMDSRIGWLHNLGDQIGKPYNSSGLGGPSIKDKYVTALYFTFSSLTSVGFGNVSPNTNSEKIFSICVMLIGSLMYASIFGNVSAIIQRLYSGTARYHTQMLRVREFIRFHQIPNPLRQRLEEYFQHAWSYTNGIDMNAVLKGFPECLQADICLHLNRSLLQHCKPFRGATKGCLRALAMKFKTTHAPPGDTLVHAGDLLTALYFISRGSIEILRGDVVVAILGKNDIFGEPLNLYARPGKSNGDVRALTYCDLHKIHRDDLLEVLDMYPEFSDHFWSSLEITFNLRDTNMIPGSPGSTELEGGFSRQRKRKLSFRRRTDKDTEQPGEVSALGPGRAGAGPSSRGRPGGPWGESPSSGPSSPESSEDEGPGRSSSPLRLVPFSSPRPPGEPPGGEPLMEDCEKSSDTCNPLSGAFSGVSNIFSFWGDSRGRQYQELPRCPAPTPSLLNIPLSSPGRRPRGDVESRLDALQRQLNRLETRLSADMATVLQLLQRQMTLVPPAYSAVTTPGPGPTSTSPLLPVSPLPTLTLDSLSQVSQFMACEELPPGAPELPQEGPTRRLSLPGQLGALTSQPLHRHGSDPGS
row,Structure (SMILES),"hERG current change (%, negative = inhibition) at 10uM"
1,COc1ccccc1CN(C)C(=O)c1ccccc1SCC(=O)N1CCCC1,1.36%
2,COc1ccc(NC(=O)C23CC4CC(C2)CC(n2cnc(Br)n2)(C4)C3)c(OC)c1,-23.4%
3,O=[N+]([O-])c1ccccc1CNC(Cc1ccccc1)c1ccccc1 (stereo not drawn),-11.3%
4,Cc1cccc(Cn2ccc(N)n2)c1,11.7%
5,CCOC(=O)Cc1csc(SCC(=O)Nc2cc(Cl)ccc2Oc2ccccc2)n1,-4.26%
6,Cc1ccc(S(=O)(=O)n2cnc3ccccc32)cc1,8.06%
7,O=C(Nc1ccc(Cc2ccc(NC(=O)N3CCOCC3)cc2)cc1)N1CCOCC1,9.75%
8,Cc1ccc(-c2nnn(CC(=O)N(CC(=O)NC(C)C)c3cnc4ccccc4c3)n2)o1,-0.922%
9,CCc1ccc2[nH]c3nc(SCC(=O)NNC(=O)c4ccc(C(C)(C)C)cc4)nnc3c2c1,-1.88%
10,CCn1c(=O)n(CC)c2cc(N3CCCC3)c(NC(=O)c3cccc(OC)c3)cc21,-8.65%
11,CC(C)=CCc1c(C)nc2ccccc2c1C(=O)O,15.7%
12,CCCn1c(SCC(=O)N2CCCCC2)nnc1C(C)C,21.5%
13,CCN(CC)S(=O)(=O)c1cccc(NC(=O)/C=C/c2ccc([N+](=O)[O-])cc2)c1,-17.9%
14,COc1ccc2nc(NCCO)[nH]c2c1,2.83%
15,COc1cc(OC)cc(C(=O)NCCNC(=O)c2ccccn2)c1,14.3%
16,CN(C)S(=O)(=O)c1ccc(C(=O)NCC(=O)N/N=C/c2ccccc2Cl)cc1,5.43%
17,CC1CCC(NC(=O)CCNS(=O)(=O)c2ccc3c(c2)CCC(=O)N3)CC1 (stereo not drawn),12.6%
18,Cl.O=C(O)C1=CCCN(CCON=C(c2ccccc2)c2ccccc2)C1,-8.21%
19,Cc1cccc2cc(CN(Cc3ccc(F)cc3)C(=O)C(F)(F)F)c3nnnn3c12,28.5%
20,CC(C)(C)c1cc[n+](-c2[nH]c(=O)sc2/C=N/NC(=O)c2ccccc2[O-])cc1,16.5%
21,OC[C@H]1O[C@@H](Oc2ccc3cc(Br)ccc3c2)[C@H](O)[C@@H](O)[C@H]1O,4.76%

row,Structure (SMILES),"hERG current change (%, negative = inhibition) at 10uM"
1,O=C(CCCC(=O)c1ccccc1)Nc1ccc(F)cc1,11.6%
2,CCCn1c(=O)c(C(=O)NNC(=O)c2ccc(Cl)cc2Cl)c(O)c2ccccc21,2.68%
3,CC1(C)CC(=O)C2=C(C1)OC(N)=C([N+](=O)[O-])C2c1ccc(F)cc1 (stereo not drawn),-4.66%
4,N#CC(C#N)=C/C(C#N)=C(/N)N1CCN(c2ccc(Cl)cc2)CC1,0.973%
5,CC12CCC(=O)N1C(C(=O)NNC(=O)c1ccccc1)CS2 (stereo not drawn),0.931%
6,CC(C)OC(=O)CC(=O)CSc1nc2c(cc1C#N)CCCCCC2,-4.33%
7,CS(=O)(=O)N(CCc1ccccc1)CC(=O)N1CCN(Cc2ccccc2)CC1,-41.8%
8,CCN(CC)c1ccc(NC(=O)C(C)C)cc1,3.24%
9,Cc1ccc(Cn2c(C3CCCN3c3nc(-c4cc(Cl)c(N)c(Cl)c4)cs3)nc3cc(Cl)c(Cl)cc32)cc1 (stereo not drawn),16.3%
10,CC(C)(C)C(=O)N(Cc1nc2ccccc2c(=O)[nH]1)Cc1cccs1,-2.93%
11,COc1cccc2c(=O)c(C/C=C(/C)Cl)c(C)[nH]c12,3.6%
12,O=C(c1cnn2c(C(F)(F)F)cc(-c3ccco3)nc12)N1CCCCCC1,-0.258%
13,CCC(C(=O)NC1CCCC1)n1nc(C)n2c(cc3occc32)c1=O (stereo not drawn),-2.75%
14,CC1(C)Cc2c(ccc3ccccc23)/C(=C/C(=O)N2CCCCC2)N1.Cl,0.952%
15,CCOC(=O)C1(CCc2ccccc2)CCN(C(=O)c2cc(C)nc(C)n2)CC1,-11%
16,O=C(O)c1ccc(OC2CSC2)cc1,22.7%
17,CCOC(=O)N1CCN(c2nc(C)c3c(n2)CCCC3=O)CC1,7.97%
18,Cn1c(=O)c2c(ncn2CC(=O)OCC(=O)Nc2sccc2C(N)=O)n(C)c1=O,-10.1%
19,COc1ccc(OC)c(/C=N/n2c(-c3n[nH]c4c3CCC4)n[nH]c2=S)c1,15.9%
20,Cc1nnc(SCc2cccc(Cl)c2)n(N)c1=O,-6.81%
21,Cc1ccc(NC(=O)C2CCC(=O)N2)cc1C (stereo not drawn),7.96%

row,Structure (SMILES),"hERG current change (%, negative = inhibition) at 10uM"
1,O=C(CCNC(=O)c1ccc([N+](=O)[O-])cc1)NNC(=O)c1ccccc1F,1.48%
2,O=C(CSc1nnc(Cn2nnc3ccccc32)o1)N(Cc1ccc(Cl)cc1)c1ccccc1,-6.61%
3,Cc1ccc(OCCC(=O)OCC(=O)c2ccc3c(c2)NC(=O)CO3)cc1,-5.09%
4,O=C(CN(C(=O)CCC(=O)Nc1ccccn1)c1ccc(F)cc1)NCc1ccco1,14.2%
5,Cc1ccc(N2C(=O)C3N=NN(CC(=O)N4N=C(c5ccccc5)CC4c4ccccc4)C3C2=O)cc1 (stereo not drawn),-5.33%
6,O=C(Nc1ccc(Oc2ccc(Br)cc2)cc1)C1=CC=CN2CCS(=O)(=O)N=C12,-0.78%
7,O=C(Nc1nnc(-c2ccccc2)o1)c1nc2ccccc2s1,12.9%
8,Cn1c(CC(=O)Nc2ccc(F)cc2)nnc1SCC(=O)NC1CCCCC1,23.9%
9,COc1ccc(N2C(=O)C(F)(F)C2c2ccc(C)cc2)cc1OC (stereo not drawn),22.2%
10,O=C(CN1CCCc2ccccc21)NC(=O)NCc1ccco1,7.7%
11,CCCCCCCCCCS(=O)(=O)N/N=C/c1ccc([N+](=O)[O-])cc1,3.69%
12,CCC(C)c1ccc(-n2c(=O)c3ccccc3n3c(=S)[nH]nc23)cc1 (stereo not drawn),23.2%
13,CCC(=O)N1CCc2cc(OC)c(OC)cc2C1COc1ccc(C(=O)OC)cc1 (stereo not drawn),-1.37%
14,Cc1nc(N2CCOCC2)c2c(C)c(C(=O)Nc3ccc(C(F)(F)F)cc3)sc2n1,-34.9%
15,CCN(CC)C(=O)c1sc(NC(=O)c2cccc([N+](=O)[O-])c2)c(C#N)c1C,2.99%
16,O=C(COc1ccccc1Cl)N1CCc2ccccc2C1,7.04%
17,Cc1cc(/C=N/NC(=O)c2ccc(CN3CCOCC3)cc2)c(C)n1-c1ccccc1,-25.7%
18,Fc1ccc(N2CCN(C(c3cccs3)c3nnnn3C3CCCC3)CC2)cc1 (stereo not drawn),-34.1%
19,O=C(CSc1cc(Cl)ccc1Cl)NCCCn1ccnc1,5.87%
20,COC(=O)COc1ccc(Oc2cc(C)nc(SC)n2)nn1,5.27%
21,CCCCNC(=O)/C(C#N)=c1\s/c(=C\c2ccccc2OC(F)F)c(=O)n1CCCOC,22.6%

row,Structure (SMILES),"hERG current change (%, negative = inhibition) at 10uM"
1,COc1cccc(NC(=O)CN(C)C(=O)CSc2ccc3c(c2)OCCO3)c1,-9.86%
2,Cc1cc(F)ccc1NC(=O)c1ccc(NS(=O)(=O)c2cc(C(C)(C)C)ccc2C)cc1,0.887%
3,Cc1csc(Nc2ccccc2)[n+]1-c1ccccc1.[Br-],22.5%
4,C[n+]1cnn2c1SCC1(COC1)C2.[I-],11.8%
5,CN(C)c1ccc(C(=O)N=c2sccn2C)cc1[N+](=O)[O-],12.6%
6,COCCCNc1nc2c([nH]1)c(=O)[nH]c(=O)n2C,2.89%
7,O=C1C=C(c2ccc(Cl)nc2)C[C@@H](c2ccc3c(c2)OCO3)C1,-20.2%
8,C[C@H](NC(=O)c1nc[nH]c1C(=O)N1CCN(c2ccccc2)CC1)c1ccccc1,-7.45%
9,CC(=O)C12CCCCC1CC1C3CC(C)C4(O)CC(=O)CCC4(C)C3CCC12C (stereo not drawn),21.8%
10,O=C(CCSc1ccccc1)Nc1ccc(OCc2ccccc2)cc1,5.88%
11,COc1ccc(COC(=O)C2=C(C)NC(=O)NC2c2ccc(O)c(OC)c2)cc1 (stereo not drawn),-3.97%
12,O=C(CSc1nc2ccccc2[nH]1)NC1CCCc2ccccc21 (stereo not drawn),-0.805%
13,COc1ccc(CCNC(=O)CN2c3cccc4cccc(c34)S2(=O)=O)cc1OC,4.56%
14,CCOc1ccc(Nc2nc(Cc3nnc(SCC(=O)c4ccc(C)c(C)c4)o3)cs2)cc1,0.743%
15,CCN1CCC(NC(=O)c2cc(OC)c(OC)cc2OC)CC1,-8.92%
16,Cc1cc(C)cc(NC(=O)COc2coc(CN3CCc4ccccc43)cc2=O)c1,2.85%
17,CCN(CC)c1ccc(N=Nc2nn(C)c(C)c2[N+](=O)[O-])cc1,-1.25%
18,NC(=O)[C@@H]1[C@@H]2C(=O)N(c3ccc(F)cc3)C(=O)[C@@H]2[C@H]2C=Cc3ccccc3N21,14.2%
19,COc1ccccc1-c1noc(-c2cccs2)n1,1.86%
20,COc1cccc(CN(C)CC(=O)NC(=O)NCc2ccccc2)c1,5.74%
21,C#CCOCCOCCOCCNc1nc(N2CCN(C(=O)C([C@@H](C)CC)n3cc(C(N)Cc4ccc(O)cc4)nn3)CC2)nc(N2CCN(C(=O)[C@H](CCC(=O)O)n3cc(C(N)CC(C)C)nn3)CC2)n1.Cl (stereo partly drawn),3.43%
